Binding signal (normalized occupancy) data for 172 sequences are collected here from paper PMC4242493.

Some of the results follow. The list includes weakly bound sequences.

This experiment addresses MaxL homodimer (UniProt P61244). Kind of experiment: universal protein-binding microarray (PBM). Particulars: PBS-based mixture, 10 nM His-tagged protein dimer, 2% milk, 200 ng/uL BSA, 50 ng/uL salmon testes DNA, 0.02% TX-100; detection with Alexa 488 anti-His …; high values mean tight binding; most listed sequences are background and not binding sites; double strand, one strand shown.
UniProt P61244, sequence (P61244 whole entry): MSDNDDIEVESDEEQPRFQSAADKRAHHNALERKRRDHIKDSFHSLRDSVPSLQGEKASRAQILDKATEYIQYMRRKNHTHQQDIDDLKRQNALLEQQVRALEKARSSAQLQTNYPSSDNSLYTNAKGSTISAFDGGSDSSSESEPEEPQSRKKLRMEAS
Regarding CGAAATTA, the binding signal (normalized occupancy) worked out at 0.0707.
With CCGACCTC the figure was 0.0712.
With ATAACTTG the figure was 0.0789; with AAATCCAT, 0.0817; with GGTCGCAA, 0.0758.
In the case of AAGAATAT, the binding signal (normalized occupancy) is 0.0801.
With CCGGTCTC the figure was 0.0693; with CGTAACTC, 0.0757; with AGAATACG, 0.0787.
Consider CCTGCAAA, for which the binding signal (normalized occupancy) worked out at 0.0722.
With CGAAGTGC the figure was 0.0732; with ATTTCGCA, 0.07; with ATCTTACG, 0.0764.
Consider CTATCAAG, for which the binding signal (normalized occupancy) worked out at 0.0742.
On to CATTCGAG, for which the binding signal (normalized occupancy) is 0.0783.
With TATTGCCA the figure was 0.082; with CAAAAAAG, 0.0719.
With CAGTATGG the figure was 0.0813; with CATGTCAG, 0.0859.
In the case of CTGGGACC, the binding signal (normalized occupancy) turned out to be 0.0772.
Regarding CGATGACG, the binding signal (normalized occupancy) turned out to be 0.0708.
With ACTCCCTC, the binding signal (normalized occupancy) is 0.0805.
With CCGTTCAG the figure was 0.0689; with CCGCCAAA, 0.0717.
With AACTGTAA, the binding signal (normalized occupancy) amounted to 0.0741.
In the case of AAAGTTAC, the binding signal (normalized occupancy) came to 0.0744.
With GACATGCC the figure was 0.0968.
With CAATCGTC the figure was 0.0781.
Regarding ACGATGAA, the binding signal (normalized occupancy) was 0.0787.
With AAGTTTAC the figure was 0.0754; with ACGAATTC, 0.0726; with ACGATGAT, 0.0814.
With AGATTCCG the figure was 0.0709; with AGGCAAGA, 0.0755; with ATCAAGAT, 0.082.
With CAGGGTAG the figure was 0.0718.
Take GCCCACCC: the binding signal (normalized occupancy) turned out to be 0.087.
On to ACGTTCAT, for which the binding signal (normalized occupancy) amounted to 0.0858.
With AATTTAGA the figure was 0.0747.
With ACTTATGA the figure was 0.0761; with CTCCAATC, 0.074.
Take ACGTATAG: the binding signal (normalized occupancy) was 0.0806.
As to ATTAATCG, the binding signal (normalized occupancy) came out at 0.075.
With ATGTCACA the figure was 0.0852; with GCTCTCCC, 0.0755; with AAAGGCAT, 0.0752.
With GGACCACA the figure was 0.0816; with AGACAAAT, 0.0757.
As to GGCACAAC, the binding signal (normalized occupancy) was determined as 0.0705.
With CAAGCAGC the figure was 0.0732; with AAGCCTGG, 0.0675; with ACATTCCC, 0.0766.
As to ACTTGGGG, the binding signal (normalized occupancy) was 0.0791.
With GGGCAGGA the figure was 0.0733; with CCCCGGGA, 0.0693; with AAACAGCT, 0.0678.
With ATGAAAAA the figure was 0.0781; with AACCCGGG, 0.0704.
With CCCGTAGG, the binding signal (normalized occupancy) worked out at 0.0672.
With ACGCGCGA the figure was 0.0786; with ACGAGGCG, 0.079; with CGGCGTCC, 0.0669.
Take GAGGTGAA: the binding signal (normalized occupancy) stood at 0.0712.
Regarding CCCTGTCA, the binding signal (normalized occupancy) was found to be 0.0753.
Take TGGATTAA: the binding signal (normalized occupancy) came to 0.0902.
Take AGAGTTTC: the binding signal (normalized occupancy) stood at 0.0684.
CACGTAAC: the binding signal (normalized occupancy) was 0.0832.
With GGTAAAAC the figure was 0.0724; with ACGTCCCG, 0.076.
For the sequence GTTTTCAA, the binding signal (normalized occupancy) was 0.0755.
With ATTTGCAA the figure was 0.0701; with AAGAGACC, 0.0659; with CACATGTA, 0.147.
For GCGTTGGA, the binding signal (normalized occupancy) was determined as 0.0812.
On to AGCCTTTA, for which the binding signal (normalized occupancy) was 0.0711.
Consider CTATGGGA, for which the binding signal (normalized occupancy) turned out to be 0.0764.
Regarding ATGGGGAG, the binding signal (normalized occupancy) came to 0.0855.
With GATTCGTA the figure was 0.075.
In the case of CTTGTGGC, the binding signal (normalized occupancy) came out at 0.081.
As to AACCGGGA, the binding signal (normalized occupancy) is 0.0762.
With CGGCCATA the figure was 0.074; with GGTGGCTA, 0.072; with GGATGTCA, 0.0814.
With ATTTATCA the figure was 0.0801.
CAAACTCG: the binding signal (normalized occupancy) came to 0.069.
With CCTTTTCG the figure was 0.0698; with GCGTAGGA, 0.0742; with CATGATAC, 0.0935.
In the case of AGAGGCTG, the binding signal (normalized occupancy) worked out at 0.074.
Take ACCATGCG: the binding signal (normalized occupancy) was determined as 0.136.
Consider GAAGCTAA, for which the binding signal (normalized occupancy) is 0.0683.
With AATTCGTC the figure was 0.0683; with GGATCGTA, 0.0821; with GGGTGACA, 0.0798.
Consider AAAACCGC, for which the binding signal (normalized occupancy) is 0.07.
With AAAGGTGC the figure was 0.0746; with CTTTTCAA, 0.0698; with TAGACACA, 0.0829.
With GCAACAAA the figure was 0.0681; with CTTCAAAG, 0.0734.
With ATCCTACG the figure was 0.0775; with CATGCGCA, 0.125; with CCTGCTAG, 0.0714.
On to AGCTGCCG, for which the binding signal (normalized occupancy) was determined as 0.0674.
With ACCCTCAT the figure was 0.0827; with GCGCTTAC, 0.0729; with AAGGTCAG, 0.0723.
Take ATTCATGG: the binding signal (normalized occupancy) is 0.0747.
Turning to ACAGCGGT, the binding signal (normalized occupancy) stood at 0.071.
With AGTGAGTA the figure was 0.0749; with GAAACGCA, 0.0732.
With AACCTGTG the figure was 0.078; with CCGAGTCA, 0.0728.
With ACATCAAG the figure was 0.075; with ACCGCAAA, 0.0677.
Consider CTAGACCA, for which the binding signal (normalized occupancy) was 0.0761.
Take CAAGATAA: the binding signal (normalized occupancy) was 0.0846.
With ATTGTTGG the figure was 0.0807.
Turning to CCAACTAG, the binding signal (normalized occupancy) came to 0.0726.
On to CAATAAGG, for which the binding signal (normalized occupancy) was determined as 0.0731.
With ACGTAAGT the figure was 0.073.
With CGTCGGAA the figure was 0.074; with CGTGCAAG, 0.0859; with TCGCCCAA, 0.0688.
Regarding TTATTCAA, the binding signal (normalized occupancy) worked out at 0.0762.
As to AGCATACC, the binding signal (normalized occupancy) was 0.0787.
With AATGTATA the figure was 0.0899.
As for GAAGGTCA, the binding signal (normalized occupancy) is 0.0721.
With GACGATCA the figure was 0.0739; with ACGTTCTC, 0.0772.
With AGGGGTCA the figure was 0.081.
With AGCCCAAA the figure was 0.0722; with CCAGTTCC, 0.0668; with GTGATCCA, 0.0739.
As for AAATGACA, the binding signal (normalized occupancy) turned out to be 0.0804.
With GTAAGCCA the figure was 0.0729; with TATAATCA, 0.0782.
With CGCTAAAC the figure was 0.0709; with AGATATCC, 0.0789; with GCGCAAAA, 0.0674.
With CAGCGAGC the figure was 0.0704; with ATATGGGA, 0.0957; with CCAAATTC, 0.0705.
As for CGCATATC, the binding signal (normalized occupancy) amounted to 0.0867.
With TACCATCA the figure was 0.0766; with AGGCTTGA, 0.0715; with AAATTTGT, 0.068.
Turning to GGCCCCTA, the binding signal (normalized occupancy) stood at 0.0764.
With CAACATCC the figure was 0.0782; with AAGGGAAG, 0.0757.
For the sequence ACAACGCG, the binding signal (normalized occupancy) came out at 0.077.
With ACACCCAA the figure was 0.0744; with CCACCGTA, 0.0773; with GTGGTAAA, 0.0779.
With AAAAAGGG the figure was 0.0721; with AACCAAAG, 0.068; with AAAGCAGA, 0.074.
With AAGGGTTC the figure was 0.0722.
For the sequence TATTAACA, the binding signal (normalized occupancy) came to 0.0776.
With CTAACTCA the figure was 0.0776.
On to GTCAGCCA, for which the binding signal (normalized occupancy) worked out at 0.0796.
With CCCGACTC the figure was 0.0757; with CGGACTAA, 0.0716; with ATCAGAGC, 0.0778.
Take CGTGCTGC: the binding signal (normalized occupancy) worked out at 0.09.
Consider CATAGGGG, for which the binding signal (normalized occupancy) amounted to 0.085.
Turning to GGTGCGCA, the binding signal (normalized occupancy) was determined as 0.0744.
For the sequence ATACTGCG, the binding signal (normalized occupancy) was determined as 0.0787.
With AACCAAGA the figure was 0.0767; with CGGACCAG, 0.0689.
In the case of CTTCGTAC, the binding signal (normalized occupancy) worked out at 0.0714.
With ACACATCA the figure was 0.0839.
